Our source for the thermal melting temperature values is the supplement of paper PMC7726561.

Whole data set: some 1,100 sequences, median “thermal melting temperature (Tm) of peptide-HLA complex” near 58, cut for the lowest 2% near 42. This is one part of the list.
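Also: cell lysates heated 10 min at 37–73 °C, remaining pHLA pulled down with pan-class I antibody, peptides quantified by DIA-MS versus 37 °C, Tm where half the complex is lost.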

In the assay the target is HLA-A*02:01. The experiment in a line: thermal melting temperature (Tm) of peptide-HLA complex; higher = more thermostable pHLA complex. As to conditions: C1R-A*02:01.
On to IQDFEMPTV, for which the thermal melting temperature worked out at 50.9 °C.

KVLERVNAV showed a thermal melting temperature of 55 °C.

Sequence ALADLQEAVKL returned a thermal melting temperature of 58.8 °C.

In turn, RLFDEPQLA displayed a thermal melting temperature of 57.9 °C.

Turning to GLDIDGIYRV, the thermal melting temperature worked out at 57.5 °C.

Regarding SVLVSPPAV, the thermal melting temperature came out at 56.5 °C.

Sequence ALADIVWRA had a thermal melting temperature of 63 °C.

RLPEAIEEV registered a thermal melting temperature of 57.9 °C.

GLLENIRQL: the thermal melting temperature came to 58.9 °C.

Turning to TVLPFVSTV, the thermal melting temperature turned out to be 55.7 °C.

As for NLFRAPIYL, the thermal melting temperature came out at 49.9 °C.

The sequence KLDDYVYYV returned a thermal melting temperature of 63.3 °C.

Turning to VLSSRLAFA, the thermal melting temperature came out at 58.9 °C.

Turning to KLLEVNGVAL, the thermal melting temperature amounted to 57.2 °C.

YLGRLAHEV returned a thermal melting temperature of 57.6 °C.

In the case of ILDKKVEKV, the thermal melting temperature is 61.1 °C.
